Reference: publication PMC2990700
These are yes or no findings as the source states them, for the method shown. Binding seen in cells or lysates may run through a third protein. Some binding calls cover weakened binding; strength is not graded here. For part of these data: Where a sequence is shown, tags or fusion partners need not be part of it. Values belong to the molecule of their own block, whether it stands above or below them.

Amino acid sequences for entries named in this document (tags omitted). A change or cut given only in a name is not applied to a line headed by its entry. Chains listed by the source or under a name are the forms on record and can include a tag or linker. Residues count along the entry.
UniProt Q9DCH4: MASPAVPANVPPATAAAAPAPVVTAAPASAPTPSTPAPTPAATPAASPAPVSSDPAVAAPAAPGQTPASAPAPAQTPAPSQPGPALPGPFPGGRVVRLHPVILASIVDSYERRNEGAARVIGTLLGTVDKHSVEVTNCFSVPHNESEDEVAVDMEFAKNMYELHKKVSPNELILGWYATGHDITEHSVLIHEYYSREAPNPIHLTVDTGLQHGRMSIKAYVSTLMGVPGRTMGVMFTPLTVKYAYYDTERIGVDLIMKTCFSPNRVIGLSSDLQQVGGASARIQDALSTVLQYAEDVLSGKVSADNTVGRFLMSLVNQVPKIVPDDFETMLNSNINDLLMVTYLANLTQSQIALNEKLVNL
HA-tagged murine eIF3f (1–192): residues 1-192 of Q9DCH4
Flag-tagged murine eIF3f (91–361): residues 91-361 of Q9DCH4
Flag-tagged murine eIF3f (188–361): residues 188-361 of Q9DCH4
S-tagged murine eIF3f active site mutant (HDI to AAA; stable MEF line) (Q9DCH4, form named): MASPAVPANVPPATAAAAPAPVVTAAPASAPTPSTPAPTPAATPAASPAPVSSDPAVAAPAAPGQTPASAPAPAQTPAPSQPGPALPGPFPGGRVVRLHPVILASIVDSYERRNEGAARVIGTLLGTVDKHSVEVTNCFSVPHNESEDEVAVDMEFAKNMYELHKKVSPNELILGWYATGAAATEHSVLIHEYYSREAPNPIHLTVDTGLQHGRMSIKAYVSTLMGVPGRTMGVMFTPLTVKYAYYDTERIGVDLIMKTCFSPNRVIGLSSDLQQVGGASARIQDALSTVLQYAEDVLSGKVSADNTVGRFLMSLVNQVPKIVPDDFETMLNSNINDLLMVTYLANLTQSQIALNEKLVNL
UniProt Q01705, residues 19-2183: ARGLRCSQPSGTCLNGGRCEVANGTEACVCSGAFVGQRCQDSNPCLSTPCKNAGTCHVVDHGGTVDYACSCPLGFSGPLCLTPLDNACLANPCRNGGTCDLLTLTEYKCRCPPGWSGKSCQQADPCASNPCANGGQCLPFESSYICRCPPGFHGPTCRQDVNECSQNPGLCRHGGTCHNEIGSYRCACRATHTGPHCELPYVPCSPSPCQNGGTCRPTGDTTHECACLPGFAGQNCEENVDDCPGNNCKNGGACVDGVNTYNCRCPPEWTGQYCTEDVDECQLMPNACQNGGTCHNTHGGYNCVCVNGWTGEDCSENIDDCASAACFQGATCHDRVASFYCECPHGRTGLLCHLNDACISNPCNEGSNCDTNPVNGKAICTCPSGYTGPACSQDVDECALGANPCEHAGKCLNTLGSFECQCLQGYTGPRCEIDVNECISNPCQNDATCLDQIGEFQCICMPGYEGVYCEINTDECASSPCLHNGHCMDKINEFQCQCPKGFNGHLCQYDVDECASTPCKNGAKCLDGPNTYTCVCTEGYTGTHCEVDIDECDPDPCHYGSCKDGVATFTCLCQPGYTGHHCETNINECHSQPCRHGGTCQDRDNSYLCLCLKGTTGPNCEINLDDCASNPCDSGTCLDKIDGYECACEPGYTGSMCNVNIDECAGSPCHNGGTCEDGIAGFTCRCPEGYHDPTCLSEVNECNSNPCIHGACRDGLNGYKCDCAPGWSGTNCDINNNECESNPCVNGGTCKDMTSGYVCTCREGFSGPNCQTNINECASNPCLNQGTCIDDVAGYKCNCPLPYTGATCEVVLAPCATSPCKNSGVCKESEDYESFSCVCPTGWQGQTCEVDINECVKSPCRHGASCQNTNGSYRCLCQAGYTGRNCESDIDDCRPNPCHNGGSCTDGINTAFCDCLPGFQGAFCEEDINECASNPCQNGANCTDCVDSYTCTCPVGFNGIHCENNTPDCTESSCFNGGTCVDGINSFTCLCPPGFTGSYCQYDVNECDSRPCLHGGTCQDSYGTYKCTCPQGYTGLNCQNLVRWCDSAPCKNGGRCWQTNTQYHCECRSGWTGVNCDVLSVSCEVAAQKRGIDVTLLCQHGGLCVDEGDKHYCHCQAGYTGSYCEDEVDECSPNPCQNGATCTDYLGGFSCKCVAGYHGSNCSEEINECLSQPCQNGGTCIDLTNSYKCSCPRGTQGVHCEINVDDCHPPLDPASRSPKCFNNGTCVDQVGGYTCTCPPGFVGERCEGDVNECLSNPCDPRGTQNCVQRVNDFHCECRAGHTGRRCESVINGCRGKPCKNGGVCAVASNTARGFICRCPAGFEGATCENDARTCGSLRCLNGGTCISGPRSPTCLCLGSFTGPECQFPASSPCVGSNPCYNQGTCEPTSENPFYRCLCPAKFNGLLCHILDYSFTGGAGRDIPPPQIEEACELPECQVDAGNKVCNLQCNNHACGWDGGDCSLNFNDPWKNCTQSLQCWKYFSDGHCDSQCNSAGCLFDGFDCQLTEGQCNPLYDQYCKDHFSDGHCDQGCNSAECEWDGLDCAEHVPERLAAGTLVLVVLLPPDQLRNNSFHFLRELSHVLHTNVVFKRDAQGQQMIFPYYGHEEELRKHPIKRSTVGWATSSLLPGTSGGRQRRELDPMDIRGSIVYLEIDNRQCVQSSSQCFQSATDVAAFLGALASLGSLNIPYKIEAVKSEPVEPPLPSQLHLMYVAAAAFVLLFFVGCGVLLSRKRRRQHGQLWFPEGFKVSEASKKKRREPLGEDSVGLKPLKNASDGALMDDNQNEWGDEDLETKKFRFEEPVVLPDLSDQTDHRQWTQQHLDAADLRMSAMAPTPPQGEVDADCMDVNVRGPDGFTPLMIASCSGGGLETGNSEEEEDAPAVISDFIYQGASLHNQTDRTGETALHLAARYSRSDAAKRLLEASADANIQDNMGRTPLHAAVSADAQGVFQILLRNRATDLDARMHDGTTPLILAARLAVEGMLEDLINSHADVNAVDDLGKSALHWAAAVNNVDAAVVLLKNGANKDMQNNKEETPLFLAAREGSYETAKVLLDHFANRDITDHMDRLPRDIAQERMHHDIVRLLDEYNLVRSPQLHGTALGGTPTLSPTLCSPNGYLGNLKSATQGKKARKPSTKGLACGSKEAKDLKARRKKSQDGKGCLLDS

What was measured:
[1] = molecular target: T1, VSV-DTX (stable MEF line) (UniProt Q86Y01); test: co-IP; stable MEF lines with low amounts of VSV-DTX and S-tagged eIF3f; IP with VSV antibody, VSV-peptide-eluted; Western blot
T1 sequence: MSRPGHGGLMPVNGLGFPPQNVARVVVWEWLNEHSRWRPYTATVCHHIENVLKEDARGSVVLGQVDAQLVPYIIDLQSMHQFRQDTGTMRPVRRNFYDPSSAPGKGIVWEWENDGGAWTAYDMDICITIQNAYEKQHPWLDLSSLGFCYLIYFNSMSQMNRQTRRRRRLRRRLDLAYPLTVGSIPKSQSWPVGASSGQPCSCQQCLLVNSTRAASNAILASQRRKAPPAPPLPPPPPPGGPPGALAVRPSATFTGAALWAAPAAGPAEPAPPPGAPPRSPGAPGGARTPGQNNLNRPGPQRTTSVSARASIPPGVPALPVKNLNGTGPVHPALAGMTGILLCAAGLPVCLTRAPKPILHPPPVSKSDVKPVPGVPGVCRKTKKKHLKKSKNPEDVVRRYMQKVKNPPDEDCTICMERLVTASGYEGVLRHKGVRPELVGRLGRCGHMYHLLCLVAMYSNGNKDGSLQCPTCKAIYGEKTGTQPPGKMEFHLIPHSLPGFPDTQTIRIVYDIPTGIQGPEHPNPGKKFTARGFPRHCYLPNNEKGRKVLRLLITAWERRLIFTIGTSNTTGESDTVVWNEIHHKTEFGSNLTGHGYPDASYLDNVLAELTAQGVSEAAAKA

[2] = molecular target: T2, VSV-tagged Deltex1 (VSV-DTX) (UniProt Q86Y01); test: co-IP; HEK293T cotransfected with eIF3f forms and VSV-DTX; IP with anti-VSV, precipitates eluted with VSV peptide; Western blot
T2 sequence: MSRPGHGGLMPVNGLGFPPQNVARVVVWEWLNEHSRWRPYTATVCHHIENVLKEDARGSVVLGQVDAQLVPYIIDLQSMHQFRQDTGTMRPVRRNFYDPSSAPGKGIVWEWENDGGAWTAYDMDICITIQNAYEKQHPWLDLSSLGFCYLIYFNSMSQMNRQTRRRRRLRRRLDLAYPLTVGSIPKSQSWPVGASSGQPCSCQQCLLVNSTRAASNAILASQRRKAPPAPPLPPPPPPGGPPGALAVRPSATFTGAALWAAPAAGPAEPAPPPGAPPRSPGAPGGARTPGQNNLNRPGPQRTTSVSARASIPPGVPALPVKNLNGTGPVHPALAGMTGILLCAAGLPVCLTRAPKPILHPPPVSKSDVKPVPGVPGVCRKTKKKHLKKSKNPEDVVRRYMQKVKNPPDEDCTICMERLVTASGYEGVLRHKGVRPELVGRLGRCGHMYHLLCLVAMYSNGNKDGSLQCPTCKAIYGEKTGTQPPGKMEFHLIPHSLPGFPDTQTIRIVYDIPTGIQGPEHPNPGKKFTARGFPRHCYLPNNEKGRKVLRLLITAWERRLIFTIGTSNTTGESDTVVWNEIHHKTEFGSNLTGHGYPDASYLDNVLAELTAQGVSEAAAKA

[3] = molecular target: HA-tagged murine eIF3f WT (meIF3f WT) (mouse) (UniProt Q9DCH4); test: co-IP; HEK293T cotransfected with HA-eIF3f, VSV-DTX and a myc-tagged Notch construct; IP with anti-HA; Western blot
[4] = molecular target: S-tagged murine eIF3f WT (stable MEF line) (mouse) (UniProt Q9DCH4); test: co-IP; stable MEF lines with low amounts of VSV-DTX and S-tagged eIF3f; IP with S-tag antibody, Laemmli-eluted; Western blot
[5] = molecular target: HA-tagged murine eIF3f WT (meIF3f WT) (mouse) (UniProt Q9DCH4); test: co-IP; HEK293T cotransfected; lysis and IP in 50 mM Tris-HCl pH 7.9, 400 mM NaCl, 5 mM MgCl2, 1% Triton X-100; eIF3f immunoprecipitated with anti-HA or anti-Flag; Western blot
[6] = molecular target: HA-tagged murine eIF3f (1–192) (mouse) (UniProt Q9DCH4); test: as above
[7] = molecular target: Flag-tagged murine eIF3f (91–361) (mouse) (UniProt Q9DCH4); test: as above
[8] = molecular target: Flag-tagged murine eIF3f (188–361) (mouse) (UniProt Q9DCH4); test: as above

- binding [1]: binds
Molecule: S-tagged murine eIF3f WT (stable MEF line) (from UniProt Q9DCH4 1-361)

- binding [1]: binds
Molecule: S-tagged murine eIF3f active site mutant (HDI to AAA; stable MEF line) (from UniProt Q9DCH4 1-361)

Molecule: HA-tagged murine eIF3f WT (meIF3f WT) (from UniProt Q9DCH4 1-361)
- binding [2]: binds

Molecule: Notch FL (myc-tagged non-activated full-length murine Notch1, deleted from aa 2183) (from UniProt Q01705 19-2183) (receptor)
- binding [3]: no binding

B1: VSV-DTX (stable MEF line) (protein, UniProt Q86Y01 1-620)
chain: MSRPGHGGLMPVNGLGFPPQNVARVVVWEWLNEHSRWRPYTATVCHHIENVLKEDARGSVVLGQVDAQLVPYIIDLQSMHQFRQDTGTMRPVRRNFYDPSSAPGKGIVWEWENDGGAWTAYDMDICITIQNAYEKQHPWLDLSSLGFCYLIYFNSMSQMNRQTRRRRRLRRRLDLAYPLTVGSIPKSQSWPVGASSGQPCSCQQCLLVNSTRAASNAILASQRRKAPPAPPLPPPPPPGGPPGALAVRPSATFTGAALWAAPAAGPAEPAPPPGAPPRSPGAPGGARTPGQNNLNRPGPQRTTSVSARASIPPGVPALPVKNLNGTGPVHPALAGMTGILLCAAGLPVCLTRAPKPILHPPPVSKSDVKPVPGVPGVCRKTKKKHLKKSKNPEDVVRRYMQKVKNPPDEDCTICMERLVTASGYEGVLRHKGVRPELVGRLGRCGHMYHLLCLVAMYSNGNKDGSLQCPTCKAIYGEKTGTQPPGKMEFHLIPHSLPGFPDTQTIRIVYDIPTGIQGPEHPNPGKKFTARGFPRHCYLPNNEKGRKVLRLLITAWERRLIFTIGTSNTTGESDTVVWNEIHHKTEFGSNLTGHGYPDASYLDNVLAELTAQGVSEAAAKA
- binding [4]: binds

B2: VSV-tagged Deltex1 (VSV-DTX) (protein, UniProt Q86Y01 1-620)
chain: MSRPGHGGLMPVNGLGFPPQNVARVVVWEWLNEHSRWRPYTATVCHHIENVLKEDARGSVVLGQVDAQLVPYIIDLQSMHQFRQDTGTMRPVRRNFYDPSSAPGKGIVWEWENDGGAWTAYDMDICITIQNAYEKQHPWLDLSSLGFCYLIYFNSMSQMNRQTRRRRRLRRRLDLAYPLTVGSIPKSQSWPVGASSGQPCSCQQCLLVNSTRAASNAILASQRRKAPPAPPLPPPPPPGGPPGALAVRPSATFTGAALWAAPAAGPAEPAPPPGAPPRSPGAPGGARTPGQNNLNRPGPQRTTSVSARASIPPGVPALPVKNLNGTGPVHPALAGMTGILLCAAGLPVCLTRAPKPILHPPPVSKSDVKPVPGVPGVCRKTKKKHLKKSKNPEDVVRRYMQKVKNPPDEDCTICMERLVTASGYEGVLRHKGVRPELVGRLGRCGHMYHLLCLVAMYSNGNKDGSLQCPTCKAIYGEKTGTQPPGKMEFHLIPHSLPGFPDTQTIRIVYDIPTGIQGPEHPNPGKKFTARGFPRHCYLPNNEKGRKVLRLLITAWERRLIFTIGTSNTTGESDTVVWNEIHHKTEFGSNLTGHGYPDASYLDNVLAELTAQGVSEAAAKA
- binding [5]: binds
- binding [6]: binds
- binding [7]: binds
- binding [8]: binds
